Measurements reported in patent US7585861B2, “HIV inhibiting 1,2,4-triazines” (Janssen Pharmaceutica, N.V., priority 2003, dated 2009).
At least one compound was matched to its structure with a doubt left.

What follows are compounds tested on HIV (assay: Test B: HIV infection measured fluorometrically in MT-4 cells engineered with GFP (HIV-specific promotor)). Details: MT-4 cells with GFP, fluorescence of HIV-infected cells reduced by 50% (EC50).
Assay type: cell-based, Human Immunodeficiency Virus (HIV)
Description: An […] T4-cell line, MT-4, which was previously shown (Koyanagi et al., Int. J. Cancer, 36, 445-451, 1985) to be highly susceptible to and permissive for HIV infection, served as the target cell line. In these cells, engineered with GFP (and an HIV-specific promotor), ongoing HIV-infection was measured fluorometrically. Cytotoxicity is measured in the same cells, but engineered with GFP under a constitutional promoter. The infection (or inhibition thereof) of HIV infected cells and the flourescence of mock-infected cells is assessed by the fluorescent GFP signal generated by the two above mentioned cell lines.

| SMILES | pIC50 (M) |
| --- | --- |
| N#C/C=C/c1cc(Cl)c(Nc2nnc(Cl)c(Nc3ccc(C#N)cc3)n2)c(Cl)c1 [Compound 76] | 8.6 |
| Cc1cc(/C=C/C#N)cc(C)c1Nc1nc(Nc2ccc(C#N)cc2)nnc1Cl [Compound 54] | 9.2 |
| COc1cc(C)c(Nc2nnc(Cl)c(Nc3ccc(C#N)cc3)n2)c(C)c1 [Compound 64] | 8.6 |
| N#C/C=C/c1cc(Cl)c(Nc2nnc(Cl)c(Nc3ccc(C#N)cc3)n2)c(Br)c1 [Compound 77] | 8.5 |
| Cc1cc(/C=C/C(=O)N(C)C)cc(C)c1Oc1nc(Nc2ccc(C#N)cc2)nnc1C [Compound 50] | 8.9 |
| Cc1cc(C(=O)N(C)C)cc(C)c1Nc1cnnc(Nc2ccc(C#N)cc2)n1 [Compound 52] | 8.6 |
| COc1cc(C=C(C)C#N)cc(C)c1Nc1nc(Nc2ccc(C#N)cc2)nnc1C [Compound 71] | 8.5 |
| COc1cc(/C=C/C#N)cc(Cl)c1Nc1nc(Nc2ccc(C#N)cc2)nnc1C [Compound 70] | 9.0 |
| CCNC(=O)c1cc(C)c(Nc2cnnc(Nc3ccc(C#N)cc3)n2)c(C)c1 [Compound 51] | 7.2 |
| C/C(=C\C#N)c1cc(Cl)c(Nc2nc(Nc3ccc(C#N)cc3)nnc2C)c(Cl)c1 [Compound 61] | 8.6 |
| CCN(C)C(=O)/C=C/c1cc(C)c(Oc2nc(Nc3ccc(C#N)cc3)nnc2C)c(C)c1 [Compound 57] | 9.1 |
| COc1cc(C(C)=CC#N)cc(C)c1Nc1nc(Nc2ccc(C#N)cc2)nnc1C [Compound 66] | 9.2 |
| COc1cc(/C(C)=C/C#N)cc(Cl)c1Nc1nc(Nc2ccc(C#N)cc2)nnc1C [Compound 68] | 8.6 |
| COc1cc(/C=C/C#N)cc(C)c1Nc1nc(Nc2ccc(C#N)cc2)nnc1C [Compound 60] | 8.9 |
| C/C(=C\C#N)c1cc(C)c(Nc2nc(Nc3ccc(C#N)cc3)nnc2C)c(Cl)c1 [Compound 69] | 8.7 |
| CNC(=O)/C=C/c1cc(C)c(Oc2nc(Nc3ccc(C#N)cc3)nnc2C)c(C)c1 [Compound 56] | 9.2 |
| N#CC=Cc1cc(Br)c(Nc2nnc(Cl)c(Nc3ccc(C#N)cc3)n2)c(Br)c1 (mixture of isomers) [Compound 78] | 8.6 |
| COc1cc(/C(C)=C/C#N)cc(OC)c1Nc1nc(Nc2ccc(C#N)cc2)nnc1C [Compound 67] | 8.5 |
| Cc1cc(/C=C/C#N)cc(Cl)c1Nc1nc(Nc2ccc(C#N)cc2)nnc1C [Compound 65] | 9.2 |
| N#CCCc1cc(Br)c(Nc2nnc(Cl)c(Nc3ccc(C#N)cc3)n2)c(Br)c1 [Compound 73] | 8.5 |
| N#Cc1ccc(Nc2cnnc(Nc3c(F)cc(I)cc3F)n2)cc1 [Compound 63] | 8.2 |
| Cc1cc(C=CC#N)cc(C)c1Nc1nnc(Cl)c(Nc2ccc(C#N)cc2)n1 [Compound 53] | 8.5 |
